Hit rate of the full screen: of about 310,000 compounds, about 14,000 (4.5%) showed an effect of 50% or more. Effects have a minus sign here. This is one part of the list.
Biological target: human ether-à-go-go-related gene (hERG) potassium channel (human, UniProt Q12809)
Experiment: primary screen, population patch clamp on CHO cells stably expressing hERG
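Also: peak tail current of the secondary pulse compared with the same well before compound.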

human ether-à-go-go-related gene (hERG) potassium channel, sequence (Q12809 whole entry, looked up): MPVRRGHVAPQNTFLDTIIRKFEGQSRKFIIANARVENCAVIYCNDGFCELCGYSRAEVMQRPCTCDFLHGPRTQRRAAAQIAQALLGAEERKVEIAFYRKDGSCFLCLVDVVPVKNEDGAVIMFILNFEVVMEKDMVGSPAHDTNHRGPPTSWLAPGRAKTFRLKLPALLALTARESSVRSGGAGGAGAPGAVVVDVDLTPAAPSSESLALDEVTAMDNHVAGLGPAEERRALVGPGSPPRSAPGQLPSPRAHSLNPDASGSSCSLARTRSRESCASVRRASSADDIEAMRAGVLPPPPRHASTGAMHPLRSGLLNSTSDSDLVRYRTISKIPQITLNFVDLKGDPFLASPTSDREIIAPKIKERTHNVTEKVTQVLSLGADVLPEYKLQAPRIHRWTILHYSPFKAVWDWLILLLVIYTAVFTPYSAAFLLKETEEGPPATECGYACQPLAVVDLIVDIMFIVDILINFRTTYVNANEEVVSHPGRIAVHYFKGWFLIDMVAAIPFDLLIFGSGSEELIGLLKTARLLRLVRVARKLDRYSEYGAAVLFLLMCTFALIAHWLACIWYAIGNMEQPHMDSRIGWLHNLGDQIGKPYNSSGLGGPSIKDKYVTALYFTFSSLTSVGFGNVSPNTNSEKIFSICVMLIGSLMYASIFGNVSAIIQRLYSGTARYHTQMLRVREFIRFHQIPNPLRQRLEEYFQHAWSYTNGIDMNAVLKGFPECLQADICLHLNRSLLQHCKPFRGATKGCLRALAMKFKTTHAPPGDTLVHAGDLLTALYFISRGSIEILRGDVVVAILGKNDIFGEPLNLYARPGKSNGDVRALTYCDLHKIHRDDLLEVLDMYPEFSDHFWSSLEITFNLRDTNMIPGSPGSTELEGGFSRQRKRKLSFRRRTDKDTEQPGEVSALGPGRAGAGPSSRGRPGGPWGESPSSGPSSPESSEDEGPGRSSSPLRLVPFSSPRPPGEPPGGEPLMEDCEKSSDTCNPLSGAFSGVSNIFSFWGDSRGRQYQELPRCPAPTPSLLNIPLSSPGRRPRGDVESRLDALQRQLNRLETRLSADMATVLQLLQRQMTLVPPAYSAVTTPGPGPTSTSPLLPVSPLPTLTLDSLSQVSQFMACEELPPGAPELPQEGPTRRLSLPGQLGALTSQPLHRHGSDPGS

Structure (SMILES)	hERG current change (%, negative = inhibition) at 10uM [%]
O=C(N/N=C\c1cccnc1)c1cc(-c2ccccc2)nc2c(Cl)cccc12	-0.984
CCN(c1cccc(C(F)(F)F)c1)S(=O)(=O)c1ccc2c(c1)CCN2C(=O)C1CC1	-17
CC(C)(CO)NCc1ccccc1OCC(=O)Nc1ccccc1	-14
CN(C)c1ccc(/C(=N\O)C(F)(F)F)cc1	9.81
Cc1sc(N)nc1C12CC3CC(CC(C3)C1)C2	10.5
COc1ccc(NC(=O)CCN2CCOCC2)c(OC)c1	19.5
NS(=O)(=O)c1ccc(F)c(C(=O)O)c1	8.68
CCOC(=O)C(C(=O)OCC)C1N=C(N)N=C2Oc3ccccc3N21 (stereo not shown)	24.2
O=C(Cc1ccsc1)N1CCN(S(=O)(=O)c2ccccc2F)CC1	-16.9
CCOC(=O)C1(Cc2cccc(OC)c2)CCN(C2CCOCC2)CC1	-68.7
Cc1ccc(N2C(=O)C(Cc3ccc(O)cc3)NC2=S)cc1C (stereo not shown)	-7.04
N/C(=N\OC(=O)c1ccccc1)c1ccn[nH]1	-1.07
COc1ccc(CC(=O)Nc2ccc3nc(SC)sc3c2)cc1OC	14.7
CC(C)c1ccc(OCC(=O)N(c2ccccn2)C2CCCCC2)cc1	-14.6
O=C1CC(c2ccccc2Cl)c2c(sc3c(=O)[nH]c(CCl)nc23)N1 (stereo not shown)	3.47
Cc1cc(O)c(C=Nc2cccc(Cl)c2)c(=O)o1	3.23
Cc1cc2cc(CN(Cc3ccco3)S(=O)(=O)c3c(C)ccc4nsnc34)c(=O)[nH]c2cc1C	-2.69
Nc1ccc(Cc2nc3cc4ccccc4cc3[nH]2)cc1	-4.41
Cc1ccsc1C1Nc2ccccc2C(=O)N1O (stereo not shown)	3.43
COc1ccc(-n2nc3c(c2NC(=O)C2CC(=O)N(c4ccccc4)C2)CS(=O)(=O)C3)cc1 (stereo not shown)	-1.59
NCCCC[C@@H]1NC(=O)[C@H](CCC(=O)O)NC(=O)c2cc([N+](=O)[O-])cc(I)c2OCC[C@@H](C(N)=O)NC1=O	4.92
CCOC(=O)C(C)Sc1nc2ccccc2c(=O)n1CC1CCCCC1 (stereo not shown)	-10.1
C/C(CC(=O)Nc1ccc(Cl)c(Cl)c1)=N\NC(=O)Cc1ccccc1	0.318
COc1cccc2cc(C(=O)NCc3ccccn3)c(=O)oc12	7.92
Cl.N/C(=N\O)C1COc2ccccc2O1 (stereo not shown)	16.4
Nc1nc(Nc2ccccc2)nc(NC2CCCCC2)c1[N+](=O)[O-]	18.9
Cc1ccc(NCCC(=O)c2cccs2)cc1	-2.35
CCC(CC)c1nn2c(N)c(/C=C3\C=Nc4ccccc43)c(=O)nc2s1	0.567

Structure (SMILES)	hERG current change (%, negative = inhibition) at 10uM [%]
CCOC(=O)N1CCN(c2ccc(C(=O)CC)cc2F)CC1	-9.37
CCN(CC)CCCNC(=S)N(Cc1cccs1)Cc1cc2cc3c(cc2[nH]c1=O)OCCO3	-19.4
COC(=O)c1c(N2C(=O)[C@H]3[C@@H](C2=O)[C@]2(C(=O)Nc4ccc(C)cc42)N2CCC[C@@H]32)sc(C)c1C	11.8
CC1(c2ccc(Cl)cc2Cl)NC(=O)N(CC(=O)NC2CCCCC2)C1=O (stereo not shown)	-2.85
Cc1[nH]c2ccc(C(=O)N3CCN(C)CC3)cc2c1C	30.8
CCN(CC(=O)NC(=O)NC1CCCCC1)Cc1ccccc1	-10.7
CCCCNC(=O)CCn1c(=O)c2ccccc2n(Cc2ccc(F)cc2)c1=O	-18.5
O=C(Nc1ccc(Oc2cccnc2)cc1)C1CCN(Cc2cc(Cl)ccc2O)CC1	-45.9
Cc1ccc(C(=O)N(C)CC(=O)Nc2ccc(Cl)c(C(F)(F)F)c2)cc1S(=O)(=O)N1CCCCC1	9.11
Cc1cc(NC(=O)CSc2nnc(C)n2-c2ccccc2C)no1	19.1
Cc1nc(C(C)NC(=O)CCc2nnc(-c3ccsc3)o2)cs1 (stereo not shown)	15.8
Nc1ccc2c(c1)COC2=O	4.55
CC(=O)c1cccc(NC(=O)C2CC(=O)N(c3ccc4c(c3)OCCO4)C2)c1 (stereo not shown)	4.07
CCc1ccc(-c2nc(CS(=O)CC(=O)NC3CCCCCC3)c(C)o2)cc1 (stereo not shown)	-7.44
FC(F)(F)c1ccc(-c2nnc(-c3ccccn3)c(-c3ccccn3)n2)nc1	4.84
Cc1ccc(S(=O)(=O)/C(=C\N(C)C)c2cnc(Cl)s2)cc1	5.09
O=C1NC(=O)/C(=C\c2ccccc2OCc2cccc([N+](=O)[O-])c2)N1	-5.66
O=C1ON=C(c2ccc(Cl)c([N+](=O)[O-])c2)/C1=C/c1cccc([N+](=O)[O-])c1O	21.5
O=C(/C=C/c1ccco1)N(Cc1ccc(Cl)cc1)C1CCS(=O)(=O)C1 (stereo not shown)	-45.1
Cc1ccc(S(=O)(=O)Nc2ccc(Cl)cc2C(=O)c2ccccc2)cc1	14.4
CC(C)(Oc1ccc(Cl)cc1)C(=O)NC1=NN(c2ccccc2)C(=O)C1	-7.72
COc1ccccc1OCc1cc(C(=O)N2CCCC(OCc3cccnc3)C2)no1 (stereo not shown)	-22
COCCN(C(=O)COC(=O)/C=C/c1ccc(OC)c(OC)c1)c1c(N)n(Cc2ccccc2)c(=O)[nH]c1=O	6.14
CCOC(=O)C1CCN(CC(O)COCc2ccc(Cl)cc2)CC1.Cl (stereo not shown)	-79.2
O=C(N/C(=C/c1ccc(F)cc1)C(=O)N1CCCCC1)c1ccco1	-18.7
CC(C)(C)C(=O)Nc1ccc(S(=O)(=O)N2CCCC2)cc1	4.25
CC(C)OC(=O)/C(=C\c1cccc2ccccc12)NC(=O)c1ccccc1	-6.39

Reference: PMC4336329 (PLoS ONE, 2015)
